Experimental data published in the supplement of paper PMC11417369.
± gives the standard deviation of the averaged measurements. The list shows a part of the results.

System: PfAP2-I AP2 domain 3 (GST-tagged)
Test: gcPBM binding intensity (ln(normalized median fluorescence intensity)); higher = stronger DNA binding
Procedure, shortened: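 The binding buffer was 1× PBS containing 1% milk, 0.2 mg/ml BSA, 0.5% salmon testes DNA and 0.03% Triton X-100. In it, GST-tagged P. falciparum DNA-binding domains expressed in E. coli were applied for 1 h to an Agilent 4 × 180k array of primer-extended double-stranded 36-bp intergenic genomic probes plus negative controls. Binding intensity, read with Alexa488 anti-GST antibody and a 488 nm scan, is the highest Masliner-normalised natural-log median intensity across replicate spots of either probe orientation.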

Sequence	gcPBM binding intensity (ln)
TTTCTAATTTATATCACACACATATAAATATAGTAA [CACACA_site6210]	7.87 ± 0.52
TTTGGAATATTAATTGTGCACTTAAAAAGTTAATTA	11 ± 0.35
TTAAATGTTGGTTGTAGTACTCCATATGTTGTTTTA [XGTACX_site5312]	7.88 ± 0.33
CTTATGTGCATACCTACACACTTACATATATATATA [CACACA_site8973]	9.34 ± 0.49
TGATACTGCAAAAAATATAAAAAAATAATAAAATAA [CACACA_negctrl_site791]	7.92 ± 0.42
TATATATATATAAGATGTACCCTTTGAAATAATAAT [XGTACX_site7215]	9.09 ± 0.13
ATTAGTTTACACATATGTACATATATTACAACAAAA [XGTACX_site275]	8.12 ± 0.49
GGTGATATAATATATACATGCACATATATATTATTA [TGCATGCA_site970]	8.46 ± 0.59
TTACAAAAAAATAATTGTACATACAATTTCTGTTAT [XGTACX_site877]	7.64 ± 0.38
TTTATATGTATGAAGTGTACACATATATTGTATTTT [XGTACX_site5731]	8.04 ± 0.49
TATGGAAATATATATTGTACGTATGACCTTTAAAAA [XGTACX_site3935]	7.85 ± 0.49
ATTATATCATCTAAAACATGCACACATATGTACTCT [TGCATGCA_site949]	8.29 ± 0.69
GTTGAGAAAATATGTGCATGTCAGGTTAAATTTTTA [TGCATGCA_site744]	8 ± 0.63
TAAGATAAAAAAAATGCATGTTCTTATAATATTGTC [TGCATGCA_site939]	8.27 ± 0.75
ATATATATATATATATGTACATAATATATGTCCTAT [XGTACX_site5087]	9.29 ± 0.32
GTAAGCATAAATATATGTACATACATATACAGATAT [XGTACX_site3361]	7.82 ± 0.33
TTCTGTATAATATAAAAACAAAAATTAAATTAAAAC [CACACA_negctrl_site81]	7.63 ± 0.54
CATAAAATATAAAACACACACACATATATATATATA [CACACA_site223]	9.26 ± 0.27
TATTATATAAATATACGTACATATACTAACCTTTTA [XGTACX_site6317]	7.83 ± 0.46

Sequence	gcPBM binding intensity (ln)
AAATTTTTTATTCTAATTAATATTTACACAATATAT [TGCATGCA_negctrl_site376]	7.61 ± 0.45
TTCCATGTAGGACATGCATGCAGTTTTTAAAATATT [TGCATGCA_site481]	8.21 ± 0.64
TATGACATATCCTGTAGTACAACGTATATATAAGAT [XGTACX_site1327]	7.93 ± 0.49
ATATATAACGTGCACACACACATTTACGTATGAATA [CACACA_site6948]	10.975 ± 0.007
AATAAAAATAATGAATGTACATATATATATACAATA [XGTACX_site3342]	7.61 ± 0.3
TTTTATTAAAACCACGCATGCAGAGGAAACGGTGAG [TGCATGCA_site1029]	8.45 ± 0.64
ATATATAATTTTTGCTGTACACAAAATATTAATTTA [XGTACX_site2057]	8.21 ± 0.36
TTTATGTATTTTTATGCACACATGCGTGGCTTATAT [CACACA_site4374]	10.79 ± 0.064
TACGGACATACTAACGGACACACGTAAGAAAAAAAA [CACACA_site602]	7.88 ± 0.54
TTTTTTTCAATATTTGCACACGATTATAATATTTAA [CACACA_site2237]	9.415 ± 0.035
AATATTCGTAATTGATGTACTTGTAATTCATACATT [XGTACX_site8314]	7.67 ± 0.31
TTTATAATAAAATTTTTACACACTTTAAAAAAAAAA [CACACA_site8070]	7.79 ± 0.4
AATAAATATCTGTACACACACAAATAAATACATATC [CACACA_site5108]	8.04 ± 0.35
TATAATAAAAATAATACACACATATATAGCAATCGT [CACACA_site3241]	8.28 ± 0.54
CAGAATAATTTTATCGGTACACACTGTATGCATAAT [XGTACX_site736]	8.04 ± 0.64
ACAGGAGTATAACCTCGTACAAAATATATTTACCAT [XGTACX_site5805]	7.83 ± 0.83
TCTTTAAAAAAAAAAAAAAAAAATTCCAAATAAATA [TGCATGCA_negctrl_site538]	7.02 ± 0.49
CCTAGAAAAGCATATACACACGCGCAAAATAAAATT [CACACA_site4902]	8.16 ± 0.59
TATATATATACATAATGTACAAGAATTTGTATTGAA [XGTACX_site627]	8.52 ± 0.35

Sequence	gcPBM binding intensity (ln)
TAAAAATAAAGAAAATGTACATAAATAAAAATAAAG [XGTACX_site2279]	8.14 ± 0.69
ATTTTTTTTTTTTTTTTAAGACAAACTCTTAATTTA [CACACA_negctrl_site1389]	7.53 ± 0.46
ATTCCAAAAAAATCAAGTACTAATTTATTATATTAC [XGTACX_site3920]	7.58 ± 0.54
TATTTTTTTAAGTGCAGTACACTTAATTTCCCCCAA [XGTACX_site7328]	10.4 ± 0.33
AAAAAAAAAAAAAAAAAAATATATTATATATATATA [XGTACX_negctrl_site467]	9.51 ± 0.16
TTTTTCACATTTCAGTGTACATTTTAATCATATATA [XGTACX_site915]	8.04 ± 0.71
CGACAAAAATTTTACAGTACAGTATAAACCTTTTTA [XGTACX_site290]	7.62 ± 0.43
TACACACATTACAGATGTACATAAAATTAAAAAAAT [XGTACX_site1804]	8.05 ± 0.54
TCAAAAAATATATTTGCACACTCAAAAAAAAAAAAA [CACACA_site860]	9.76 ± 0.55
TATATATATATAAATACATGCATATAATTAATCCAT [TGCATGCA_site400]	8.99 ± 0.028
CTTTTATATGTCTAATGTACGGGCAATATAAATTTG [XGTACX_site8323]	7.91 ± 0.38
CATATTGAATATTTAACACACATTTCGCTTAATTCA [CACACA_site2086]	7.68 ± 0.47
ACACATTATAAAACTGTCGCTCATAAAGAAGAATGA [CACACA_negctrl_site999]	7.77 ± 0.81
GCAACAAAAAATCAGACATGCATTTTAAAATGAATA [TGCATGCA_site846]	7.4 ± 0.58
GAATGAATTGTTATTAGTACACATGTGAATTATAAA [XGTACX_site6790]	7.84 ± 0.45
TATAAAAAAAAAATTTGTACATAATAATATATATAT [XGTACX_site2074]	8.88 ± 0.13
TTATATATAAAATACTGTACATTTAATTGATGGTTT [XGTACX_site2073]	7.71 ± 0.39
TATATAAATTTAATAACACACATATAAAAATGAATT [CACACA_site2366]	7.61 ± 0.55
